From PubChem BioAssay AID1508624 (National Center for Advancing Translational Sciences (NCATS), 2021)
Screen size: about 48,000 compounds; about 120 (0.25%) were called active. About 4% were inconclusive and are not listed. Calls come from the whole dose curve; as a rule, active = well fitted activation curve with a large enough effect; inconclusive = small, poorly fitted or top-dose-only effect, or another doubt; inactive = no such curve, though single readings can be large or run the other way. This is one part of the list.

Experiment: Primary qHTS for Identification of Small Molecule Activators of Huntingtin-Antisense Promoter Activity; note: nearly all actives have a fitted effect of over 55% in size
Conditions: HEK293 HTT-AS promoter firefly luciferase reporter, 24 h; series mostly up to 57.5 µM; activity change, positive = activation: at the top concentration
Summary of the method: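 HEK293 Fluc reporter, 2,500 cells/well, 24 h pre-culture; cpds up to 57.5 uM final, 24 h 37 degrees C; Dual-Glo, 10 min RT; normalized vehicle = 0%, zero RLU = -100%.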

Activity change, positive = activation, inactive:
Cc1ccc(NC(=O)c2cc(S(=O)(=O)NCCc3ccc(Cl)cc3)ccc2F)cc1 -33%
COc1ccc(C2N=C(N)Nc3nc4ccccc4n32)cc1 (stereo unspecified) -16.4%
CC1=C(C(=O)N2CCN(c3cccc(Cl)c3)CC2)C2(CCCCC2)OC1=O -13.6%
CCOC(=O)C1CCN(c2nc3c(S(=O)(=O)c4ccc(C)c(C)c4)nnn3c3ccc(Cl)cc23)CC1 -27.4%
CCOC(=O)CSc1nc2c(sc3ccccc32)c(=O)n1CCO 0%
COc1cc(C)c(Sc2cnc(NC(=O)c3ccc(CNC(C)C(C)C)cc3)s2)cc1C(=O)N1CCN(C(C)=O)CC1 (stereo unspecified) -11.5%
CCN(CC)CCCNc1ncnc2c1cnn2-c1ccc(C)c(C)c1 21.7%
Cc1csc2nc(COc3cccc(NC(=O)c4ccccc4F)c3)cc(=O)n12 -2.71%
Cc1nn(CC(=O)N2CCN(c3ccc(Cl)cc3)CC2)c(=O)c2cccn12 -4.66%
COc1ccc(OCC(O)Cn2c(NCCO)nc3c2c(=O)n(C)c(=O)n3C)cc1 (stereo unspecified) -67.4%
O=C(CSc1nc2c([nH]c3ccccc32)c(=O)n1-c1ccc(Cl)cc1)c1ccccc1 -12%
Cc1cc(C)cc(NC(=O)Cn2cc(C(=O)C3CCCCC3)c3ccccc32)c1 -23.1%
Cc1ccc2nc(COc3ccccc3NC(=O)c3ccc(F)cc3)cc(=O)n2c1 -9.33%
Cc1ccc2c(=O)cc(C(=O)Nc3ccc(S(=O)(=O)Nc4ncccn4)cc3)oc2c1C 1.98%
Cc1cc(C)c(NC(=O)C2CCN(c3nn4c(=O)cc(C)nc4s3)CC2)c(C)c1 -5.28%
COc1ccc(NCc2cccn2-c2nnc(N3CCCCC3)s2)cc1OC -54.4%
CCOc1ccc(NC(=O)c2c(NC(=O)Cc3ccccc3)sc3c2CCCCC3)cc1 -10.1%
Cc1ccc(-n2c(=O)c3c(c4cc(C)ccc4n3C)n(CC(=O)N3CCCC3)c2=O)cc1 -13.9%
CC(Cc1ccccc1)(NC(=O)CN)c1ccccc1 (stereo unspecified) 0.62%
COc1ccccc1CNC(=O)c1cn(C)c2ccc(S(=O)(=O)N(C)C3CCCCC3)cc2c1=O -14.6%
Cc1ccc(NC(=O)CSc2cn(CC(=O)N3CCCC3)c3ccccc23)cc1Cl -25.6%
CCOc1ccc(NS(=O)(=O)c2ccc3c(c2)CCCN3C(=O)C2CCC2)cc1 -28.4%
Cc1cc(NC(=O)CN2C(=O)c3cccnc3Sc3ccccc32)ccc1Br -2.38%
COc1ccc(OC)c2sc(N(Cc3cccnc3)C(=O)c3ccco3)nc12 -25.1%
CCc1ccccc1NC(=O)Nc1nnc(N(CC)c2ccccc2)s1 -14.9%
CCN1CCN(c2ncc3c(n2)CC(c2ccccc2O)CC3=O)CC1 (stereo unspecified) -14.5%
Cc1ccc(CNC(=O)c2cc(-c3ccc(Cl)cc3)on2)cc1 4.16%
Cc1ccc2oc(=O)c(S(=O)(=O)c3ccc(C(C)(C)C)cc3)cc2c1 16%
CN(C)c1ccc(CNC(=O)CN2CCSc3ccc(S(=O)(=O)N(C)C)cc32)cc1 -28.5%
Cc1ccc(CNC(=O)CNS(=O)(=O)c2cccs2)cc1 -5.7%
Cc1ccc(NC(=O)C2CCN(c3nn4cc(-c5ccc(C)cc5)nc4s3)CC2)cc1 21.5%
CCN(c1ccccc1)S(=O)(=O)c1nnc(NC(=O)COc2cccc(C)c2)s1 -21.3%
O=C(Nc1ccc(Br)cc1)C1CCCN1S(=O)(=O)c1ccc(F)cc1 (stereo unspecified) -42.1%
CC(C)(C)c1ccc(C(=O)Nc2sc3c(c2C#N)CCC(C(C)(C)C)C3)cc1 (stereo unspecified) 7.2%
C[C@H](CCC(=O)O)[C@H]1CC[C@H]2[C@H]3[C@@H](CC[C@]12C)[C@@]1(C)CC[C@@H](O)C[C@H]1C[C@@H]3O -22.1%
COc1ccc(CNC(=O)c2oc3c(c2C)-c2nn(Cc4ccc(Cl)cc4)cc2CC3)cc1 -35.7%
CCOc1ccc(NC(=O)Cn2c(=O)n(CC(=O)NCc3ccccc3Cl)c(=O)c3sccc32)cc1 -13.9%
CCN(C(=O)c1cc2c(=O)oc3ccc(C)cc3c2s1)c1ccccc1C -11.7%
CCN(CC)S(=O)(=O)c1ccc2nc(NC(=O)c3cncc(Br)c3)sc2c1 -11.9%
Cc1cccn2c(=O)c(C(=O)NC(C)c3ccccc3)cnc12 (stereo unspecified) 0.439%
Cc1ccc(OCc2nc(-c3ccc(C(=O)NCc4ccc(OC(C)C)cc4)cc3)oc2C)cc1 -12.6%
CCOc1ccc(N(C)S(=O)(=O)c2ccc3[nH]cc(C(=O)NCc4ccccc4)c(=O)c3c2)cc1 -1.86%
Cc1cc(C)cc(N2C(=O)N(Cc3cccc(F)c3)c3ccccc3S2(=O)=O)c1 -21.9%
Cc1ccc(C(=O)c2cn(Cc3ccc(Cl)cc3)c3nc(C)ccc3c2=O)cc1 1.43%
COc1ccc(N2CCN(C(=O)CSc3n[nH]c(-c4ccccc4Cl)n3)CC2)cc1 -13.2%
Cc1ccc(C)c(CN2C(=O)c3ccccc3S(=O)(=O)c3ccc(C(=O)NCCC4=CCCCC4)cc32)c1 -18.4%
Cc1cc(C)c(NC(=O)C(C)n2nnc3sc4c(c3c2=O)CCCC4)c(C)c1 (stereo unspecified) -4.96%
COc1ccc(Nc2oc(-c3ccc(COc4ccccc4C)o3)nc2C#N)cc1 -24.1%
COc1ccc(CCn2c3c(c(=O)[nH]c2=O)C(NC(=O)c2ccc(C(C)(C)C)cc2)(C(F)(F)F)C(=O)N3)cc1OC (stereo unspecified) -8.7%
CC(=O)c1cc(-c2ccc(F)cc2)n(CC(=O)Nc2cc(C)cc(C)c2)c1C -18.4%
COc1ccccc1Cc1nc2ccccc2nc1SCC(=O)N1CCN(c2ccccc2)CC1 -4.1%
Cc1ccc(C(C)C)c(OCCSc2nc3ccccc3n2CC(O)CO)c1 (stereo unspecified) -33.6%
COc1cccc(NC(=O)/C(C#N)=C/c2c(C)n(Cc3ccc(Cl)cc3)c3ccccc23)c1 -8.33%
CC(C)Cn1c(-c2ccc(S(=O)(=O)N3CCOCC3)cc2)csc1=Nc1cc(Cl)ccc1Cl 0%
O=C(NCc1ccco1)c1ccc2c(c1)N(Cc1ccc(Cl)cc1)C(=O)c1ccccc1S2 -38.8%
CCOc1ccc(Nc2nc3c(S(=O)(=O)c4ccc(C(C)C)cc4)nnn3c3ccsc23)cc1 -14.1%
COc1cc(OC)c(NS(=O)(=O)c2c(C(=O)N3CCC(C)CC3)c(C)n(C)c2C)cc1Cl -17.9%
Cc1nnc(NC(=O)CSCc2cc(=O)c3ccccc3[nH]2)s1 -3.22%
COc1ccc(CCNC(=O)CCn2c(=O)c3ccccc3n(Cc3ccccc3)c2=O)cc1OC -25.1%
CC(C)c1nn2c(=O)cc(COC(=O)c3ccccc3NC(=O)c3cccc(Cl)c3)nc2s1 0.585%
Cc1nc2ccn(Cc3cccnc3)c(=O)c2cc1C(=O)N1CCN(c2ccc(F)cc2)CC1 -17.9%
COC(=O)c1ccccc1NC(=O)c1cnc2c(-c3cccc(C)c3)c(C)nn2c1C -12.9%
CN(C)CCNc1oc(-c2ccc(COc3ccc(Cl)cc3)o2)nc1C#N -14.6%
COc1ccc(CCNC(=O)C(C)n2c(=O)cc(C(F)(F)F)c3c(C)nn(C)c32)cc1OC (stereo unspecified) -13.2%
Cc1cc(C)cc(Oc2nc3c(C)cccn3c(=O)c2/C=C(\C#N)c2nc3ccccc3s2)c1 -2.59% [at 11.5 µM, percent change from vehicle, -100% = no light]
COc1ccc(N2CCN(Cc3nnc(-c4cccc(Br)c4)o3)CC2)cc1 -2.44%
CCc1ccc(C(=O)c2cn(Cc3ccc(F)cc3)c3cc(OC)c(OC)cc3c2=O)cc1 -25%
CCS(=O)(=O)N1CC(=O)N(c2ccc(Cl)cc2)C(C)(C(=O)NC2CCCCCC2)C1 (stereo unspecified) -14.6%
C[C@@H](Oc1cc(-n2cnc3ccc(CN4CCN(C)CC4)cc32)sc1C(N)=O)c1ccccc1C(F)(F)F -44.5%
O=C(CCCN1CCC(O)(c2ccc(Br)cc2)CC1)c1ccc(F)cc1 -6.89%
Cc1ccc(NC(=O)[C@@H](c2ccccc2)N2Cc3ccccc3C2=O)cc1F -6.49%
COc1ccc(CCNC(=O)Cn2c(=O)c3cccn3c3ccccc32)cc1OC -14.8%
CCCc1nn2c(=O)cc(COC(=O)c3ccco3)nc2s1 -5.31%
Cc1c(C(=O)NCc2ccc(F)cc2)sc2nc(-c3ccc(F)cc3)cn12 -10.8%
CCCCOc1ccccc1C1CC(=O)Nc2cc(OC)c(OC)cc21 (stereo unspecified) -23.7%
CC(=O)Nc1c(C)nn(-c2ccccc2)c1N1CCC(C(=O)Nc2cccc(C(F)(F)F)c2)CC1 5.96%
O=C(CSc1ncc2c(n1)-c1ccc(Cl)cc1N(Cc1ccccc1)S2(=O)=O)Nc1ccccc1C(F)(F)F 14.7%
CCOC(=O)Cn1c(=O)n(CC2CCCO2)c2nc(-c3ccc(CC)cc3)nc(C(N)=O)c21 (stereo unspecified) -7.04%
CCCN(CCC)C(=O)C1CCCN(c2ncnc3c2nc2n3CCCCC2)C1 (stereo unspecified) -25.9%
CCc1nnc2c3ccccc3nc(N3CCN(c4cc(C)ccc4C)CC3)n12 -19.4% [at 11.5 µM, percent change from vehicle, -100% = no light]
Cc1ccccc1CN1C(=O)c2ccccc2S(=O)c2ccc(C(=O)NCc3ccc4c(c3)OCO4)cc21 (stereo unspecified) -23.9%
COc1cccc(CNC(=O)CCC(=O)N2CC(C)Sc3ccccc32)c1 (stereo unspecified) -20.5%
COc1ccc(CNC(=O)C(=O)Nc2cc(Cl)ccc2OC)cc1 7.95%
CC(=O)Nc1cc(C(=O)Nc2ccc3c(c2)N(C)C(=O)c2ccccc2S3)ccc1C -19.9%
COc1ccc(N2CCN(S(=O)(=O)CCNC(=O)c3c(F)cccc3Cl)CC2)cc1 -5.11%
Cc1ccc(S(=O)(=O)c2nnn3c2nc(N2CCC(C(N)=O)CC2)c2cc(Cl)ccc23)cc1C -25.6%
Cc1ccc(NS(=O)(=O)c2c(C)nc3sc(C)cn3c2=O)c(C)c1 -32.1%
CNCC[C@H](Oc1cccc2ccccc12)c1cccs1
Cc1nc2c(c(C)nn2C(C)(C)C)c(C)c1CCC(=O)Nc1ccc(Br)cc1Br -4.27%
COc1ccc(C(=O)Nc2nc3n(n2)C(c2ccc(F)cc2)C=C(c2ccc(Cl)cc2)N3)cc1 (stereo unspecified) -34.8%
CCn1c(=O)c2sccc2n2c(CCCC(=O)Nc3ccc(OC)c(OC)c3)nnc12 5.33%
